# Measured values reported in PubChem BioAssay AID686979 (National Center for Advancing Translational Sciences (NCATS), 2013).
# Among all 420,000 compounds or so, about 50,000 (12%) were called active. Inconclusive results, whose numbers are uncertain, are shown with a selection of clear calls. Calls come from the whole dose curve; as a rule, active = well fitted inhibition curve with a large enough effect; inconclusive = small, poorly fitted or top-dose-only effect; inactive = flat fitted curve, though single readings scatter. Potencies of inconclusive entries are left out as doubtful fits.
# Test: qHTS for Inhibitors of human tyrosyl-DNA phosphodiesterase 1 (TDP1): qHTS in cells in presence of CPT; note: nearly all actives have a fitted effect of over 55% in size
# Settings: chicken DT40 Tdp1-/-;hTDP1 cells + 20 nM CPT, ATP luminescence, 48 h; activity change, negative = growth inhibition: at 46.2 µM (top of the series) unless noted
# Procedure, shortened: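 Cell growth measured by CellTiter-Glo luminescence after a minimum 48 h, 37 C compound exposure with 20 nM CPT in Tdp1-knockout DT40 cells stably expressing hTDP1, seeded 400/well; qHTS titration format.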
# % is set by controls: 0 for no effect and ±100 for the full control effect; potency is the fitted concentration of half-maximal effect; tags give direction and shape of the fitted curve.
SMILES,"activity change, negative = growth inhibition",Potency
CCc1ccc(NC(=O)Cn2c(=O)n(CCC(=O)N3CCc4ccccc4C3)c(=O)c3ccccc32)cc1,inactive: -8.25%,
CNC(=O)Nc1cc(C(C)(C)C)no1,,active: 16.4 µM
CCOC(=O)Cc1csc(NC(=O)c2ccc3ccccc3n2)n1,,"inconclusive [inhibitor, single point]"
CC(=O)N1c2ccccc2C(C)(c2ccccc2)CC1(C)C (configuration not stated),,"inconclusive [inhibitor, single point]"
COC(C(=O)Nc1ccc(S(=O)(=O)Nc2ccc(C)c(C)c2)cc1)c1ccccc1 (configuration not stated),,"inconclusive [inhibitor, partial curve]"
O=[N+]([O-])c1ccc(N/N=C/c2cccnc2)cc1,,active: 5.8 µM
CCn1c2ccccc2c2nnc(SCC(=O)Nc3ccccc3OC)nc21,,"inconclusive [inhibitor, single point]"
O=C(Nc1nccs1)c1cc(-c2ccccc2)nn1-c1ccccc1,,"inconclusive [inhibitor, single point]"
Cc1cccc(N2C(N)=C(C#N)C(C#N)(C#N)C2c2ccccc2)c1 (configuration not stated),,active: 20.6 µM
CSCCC(NC(=O)c1ccc(Cl)cc1)C(=O)OCC(=O)Nc1cc(Cl)ccc1C#N (configuration not stated),,"inconclusive [inhibitor, single point]"
O=C(CNC(=O)c1ccco1)OCC(=O)c1ccc([N+](=O)[O-])cc1,,"inconclusive [inhibitor, single point]"
CCOC(=O)C1CCCN(C(=O)c2ccc3c(=O)n(CCOC)c(=S)[nH]c3c2)C1 (configuration not stated),,"inconclusive [inhibitor, single point]"
O=C(Nc1cccc(Cl)c1)Nc1c[nH]c(=O)[nH]c1=O,inactive: -0.641%,
O=c1cc(-c2ccccc2)oc2ccc3ccccc3c12,,"inconclusive [inhibitor, single point]"
CC(=O)Nc1cccc(Nc2nc(-c3ccccc3F)nc3ccccc23)c1,,"inconclusive [inhibitor, single point]"
Cc1ccc(NC(=S)N2CCCCCC2)c(C)c1,,"inconclusive [inhibitor, single point]"
Cc1ccc(CN(C(=O)CNC(=O)c2cccs2)C(C(=O)NCC2CCCO2)c2ccccc2)cc1 (configuration not stated),,"inconclusive [inhibitor, single point]"
CCCCCCCOc1ccc(C(=O)Nc2cccnc2)cc1,,"inconclusive [inhibitor, single point]"
Cc1ccc(S(=O)(=O)N2CCC(=O)N(C(COCc3ccccc3)C(C)C)CC2)cc1 (configuration not stated),,"inconclusive [inhibitor, single point]"
Cc1cccn2c(=O)c(/C=C(\C#N)C(N)=O)c(Oc3ccccc3)nc12,,"inconclusive [inhibitor, single point]"
CC(C)CC1Nc2ncnc(N3CCCCC3)c2N(Cc2ccc(Br)cc2)C1=O (configuration not stated),,"inconclusive [inhibitor, single point]"
CCCN1CCC(=O)N([C@H](CSc2ccc(C)cc2)CC(C)C)CC1,,active: 20.6 µM
COc1ccc(-c2cc(NCc3ccc(F)cc3)n3cnnc3n2)cc1,,"inconclusive [inhibitor, partial curve]"

SMILES,"activity change, negative = growth inhibition",Potency
CC1CC(C)(C)CC2(C1)NC(=O)N(CC(=O)Nc1ccc(N3CCCCC3)cc1)C2=O (configuration not stated),,"inconclusive [inhibitor, single point]"
CCOc1ccc(NC(=O)CN2CCN(CC(=O)Nc3ccc(Cl)c(C(F)(F)F)c3)CC2)cc1,,active: 11.6 µM
CCOC(=O)[C@H]1[C@H]2COc3ccc(Cl)cc3[C@@H]2N2C(=O)[C@@H](CO)NC(=O)[C@@]12C,,"inconclusive [inhibitor, partial curve, poor fit]"
COc1ccc(NC(=O)N2CCC3(CC2)CCN(C(=O)c2cnccn2)CC3)cc1,inactive: 6.66%,
O=C(Nc1cc(S(=O)(=O)N2CCOCC2)ccc1Cl)c1cc(=O)c2ccccc2o1,,active: 11.6 µM
COc1ccc(NC(=O)N(C)[C@H]2C[C@H]3c4[nH]c5ccccc5c4CCN3C[C@H]2[C@H](C)O)cc1,,"inconclusive [inhibitor, single point]"
Cc1ccc(N2C(=O)[C@@H]3C(c4cccnc4)=NO[C@@H]3C2=O)cc1,,"inconclusive [inhibitor, single point]"
COCCn1c(C)cc(/C=C2/SC(=O)N(C(C)C(=O)OC)C2=O)c1C (configuration not stated),,"inconclusive [inhibitor, single point]"
COc1cc(/C=N/NC(=O)c2ccc3nc[nH]c3c2)cc(OC)c1OC(C)=O,,"inconclusive [inhibitor, single point]"
CCOCCCNC(=O)c1cc2c(=O)n(CC)c3ccccc3c2s1,,"inconclusive [inhibitor, single point]"
COc1ccccc1/C=C/c1ccnc2ccccc12,,"inconclusive [inhibitor, single point]"
CCN(CC)C(=O)C1CCN(S(=O)(=O)c2ccc(C3CNC(=O)C3)cc2)CC1 (configuration not stated),,"inconclusive [inhibitor, single point]"
O=[N+]([O-])c1ccc(N2CCN(Cc3ccncc3)CC2)cc1,,"inconclusive [inhibitor, single point]"
CC(=O)/C(N=Nc1cc2c(c([N+](=O)[O-])c1C)C(C)(C)CC2(C)C)=C(\C)O,,"inconclusive [inhibitor, single point]"
O=C(C1CCC1)N1CCN(S(=O)(=O)c2ccc(Br)cc2Cl)CC1,,"inconclusive [inhibitor, single point]"
COc1cccc2cc(C(C)N(CCCN3CCOCC3)C(=S)Nc3ccccc3C)oc12 (configuration not stated),inactive: 5.28%,
CCc1ccc2c(c1)cc(CN(C(=S)Nc1ccccc1Cl)C1CC1)c1nnnn12,,"inconclusive [inhibitor, partial curve, poor fit]"
COc1ccc(C(=O)N2CCCC(Nc3ccc(C(C)C)cc3)C2)c(OC)n1 (configuration not stated),,"inconclusive [inhibitor, single point]"
CN(C(=O)c1cccc(NC(=O)Cc2ccc(NC(=O)C3CCCN(C(=O)C4CCCCC4)C3)cc2)c1)C1CCCC1 (configuration not stated),,"inconclusive [inhibitor, single point]"
Cc1c(Cl)c([N+](=O)[O-])nn1CCCC(=O)Nc1cc(Cl)ccc1Cl,,"inconclusive [inhibitor, single point]"
COc1ccc(C(=O)N2CCC(C(=O)c3c(C)cc(C)cc3C)CC2)cc1,,"inconclusive [inhibitor, partial curve]"
O=C(CCSc1ccc(Br)cc1)c1ccc(O)cc1,,active: 3.66 µM
CCN(CC)S(=O)(=O)c1ccc(N2CCCC2)c(NS(=O)(=O)c2ccc(OC)cc2)c1,,"inconclusive [inhibitor, single point]"

SMILES,"activity change, negative = growth inhibition",Potency
CN(c1ccccc1)S(=O)(=O)c1ccc(NC(=O)c2ccc(-c3ccccc3)cc2)cc1,,active: 20.6 µM
CCCN1C(=O)C(Cc2nc3ccccc3c(=O)n2CC)c2ccccc21 (configuration not stated),,"inconclusive [inhibitor, partial curve, poor fit]"
Cc1ccc(-n2nc3c(N4CCC(C(=O)N5CCCCC5)CC4)nnc(C)c3c2C)cc1,,"inconclusive [inhibitor, single point]"
CC(C1CC2CCC1C2)n1c(COc2ccccc2F)nnc1SCC(N)=O (configuration not stated),,"inconclusive [inhibitor, single point]"
COc1ccc(CC(=O)c2c(O)cc(O)cc2O)cc1OC,inactive: -23.5%,
CCC1=[N+](CC(=O)c2ccc(C)cc2)CCn2c(C)ccc21,,active: 2.91 µM
COc1cccc(CN2CCC2(C)C(=O)Nc2cccc3cccnc23)c1F (configuration not stated),,"inconclusive [inhibitor, single point]"
CCCOc1ccc(N2CC(C(=O)Nc3cccc(Cl)c3Cl)CC2=O)cc1 (configuration not stated),,"inconclusive [inhibitor, single point]"
CCOC(=O)Cn1cnc2c(cnn2-c2ccccc2)c1=O,inactive: 6.71%,
CC(OC(=O)Cc1ccc(F)cc1)C(=O)NCc1ccc2c(c1)OCO2 (configuration not stated),inactive: -2.67%,
CC(=O)NC(=Cc1ccccc1)C(=O)N1CCCC1C(=O)O (configuration not stated),inactive: -11%,
COC(=O)CSc1ncnc2scc(-c3ccccc3)c12,inactive: -28.8%,
O=C(CCS(=O)(=O)c1ccccc1Cl)NCCC1=CCCCC1,inactive: -22.8%,
Cn1cccc2[nH]c(=O)nc1-2,inactive: -16.9%,
CC(C)S(=O)(=O)C1=NSC2=NC(=O)/C(=C\c3ccc(-c4cccc(C(=O)O)c4)o3)C(=N)N21,inactive: 1.45%,
CC(C)CN1C(=O)c2ccc(C(=O)Nc3nccs3)cc2C1=O,inactive: -11%,
COc1ccccc1C(=O)Nc1ccccc1N1CCOCC1,,"inconclusive [inhibitor, single point]"
C=CCOC(=O)C1=C(C)OC(N)=C(C#N)C1c1c(C)nn(-c2ccccc2)c1Cl (configuration not stated),inconclusive: -30.1% [inhibitor],
CC1=NN(c2ccc(Cl)cc2)C(=O)/C1=C\c1cccn1-c1ccc(S(N)(=O)=O)cc1,,"inconclusive [inhibitor, single point]"
O=C(/C=C/Nc1ccc(Oc2ccccc2)cc1)c1ccco1,,"inconclusive [inhibitor, partial curve, poor fit]"
COc1cccc(-n2nc(-c3ccnn3-c3ccc(F)cc3)c(=O)n(C)c2=O)c1,,"inconclusive [inhibitor, single point]"
